# According to paper PMC4336329 (PLoS ONE, 2015):
# The whole screen tested about 310,000 compounds, of which about 14,000 (4.5%) showed an effect of 50% or more. The effect is printed as a negative number. Some of the results follow.
# Target: human ether-à-go-go-related gene (hERG) potassium channel (human, UniProt Q12809)
# Test: primary screen, population patch clamp on CHO cells stably expressing hERG
# 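Note: peak tail current of the secondary pulse compared with the same well before compound.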
# Sequence of human ether-à-go-go-related gene (hERG) potassium channel (Q12809 whole entry, looked up): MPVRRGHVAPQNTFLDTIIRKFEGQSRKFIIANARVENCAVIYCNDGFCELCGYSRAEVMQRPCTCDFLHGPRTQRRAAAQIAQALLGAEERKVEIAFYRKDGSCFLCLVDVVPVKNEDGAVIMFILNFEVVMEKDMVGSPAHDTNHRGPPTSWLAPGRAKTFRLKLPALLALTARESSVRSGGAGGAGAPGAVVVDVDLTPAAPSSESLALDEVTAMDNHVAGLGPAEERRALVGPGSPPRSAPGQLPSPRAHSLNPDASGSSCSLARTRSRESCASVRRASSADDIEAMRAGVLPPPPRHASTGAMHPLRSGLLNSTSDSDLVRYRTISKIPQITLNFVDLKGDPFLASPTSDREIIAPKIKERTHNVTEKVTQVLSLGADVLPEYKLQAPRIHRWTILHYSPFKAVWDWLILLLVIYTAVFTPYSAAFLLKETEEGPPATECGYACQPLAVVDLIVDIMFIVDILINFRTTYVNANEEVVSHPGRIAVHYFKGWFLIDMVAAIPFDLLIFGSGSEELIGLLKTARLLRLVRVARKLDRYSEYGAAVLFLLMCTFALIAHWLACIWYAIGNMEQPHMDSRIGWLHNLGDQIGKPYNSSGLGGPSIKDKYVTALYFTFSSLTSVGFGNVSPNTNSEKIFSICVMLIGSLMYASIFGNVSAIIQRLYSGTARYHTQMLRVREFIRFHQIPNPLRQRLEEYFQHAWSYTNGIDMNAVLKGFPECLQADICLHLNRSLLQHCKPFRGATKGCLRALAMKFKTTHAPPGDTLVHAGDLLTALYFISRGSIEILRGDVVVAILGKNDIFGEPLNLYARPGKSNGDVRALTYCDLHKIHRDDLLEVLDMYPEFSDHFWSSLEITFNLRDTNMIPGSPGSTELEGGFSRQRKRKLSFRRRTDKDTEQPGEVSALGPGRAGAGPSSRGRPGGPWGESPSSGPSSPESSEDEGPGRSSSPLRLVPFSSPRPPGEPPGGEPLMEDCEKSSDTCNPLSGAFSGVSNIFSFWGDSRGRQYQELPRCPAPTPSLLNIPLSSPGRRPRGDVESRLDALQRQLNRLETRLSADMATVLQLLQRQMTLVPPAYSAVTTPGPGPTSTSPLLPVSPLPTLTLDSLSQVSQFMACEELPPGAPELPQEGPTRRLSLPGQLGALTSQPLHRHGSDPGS
row,SMILES,"hERG current change (%, negative = inhibition) at 10uM [%]"
1,CC(C)(C)c1cc2cccnc2n1Cc1ccccc1,-13.2
2,C/C(CC(=O)NCc1ccco1)=N\NC(=O)Cc1cccc2ccccc12,-5.36
3,CNC(=O)c1cccc(N2CCCC2=O)c1,14.7
4,CCCCn1c(=O)c(CCC(=O)OC(C)C(=O)Nc2cccc(Cl)c2Cl)nc2ccccc21 (centres unmarked),-6.94
5,O=C(NNC(=O)c1ccc(S(=O)(=O)N2CCOCC2)cc1)c1ccccc1,17.5
6,CCC(=O)c1cc(-c2nc3ccccc3n2C)n(C)c1,-2.09
7,Cc1ccc(O)c(C(=O)c2cnc3c(c2)c(=O)n(C)c(=O)n3C)c1,9.19
8,Cc1cccc(C)c1NC(=O)C[n+]1cc(-c2ccccc2)n2c1CCC2.[Cl-],11.3
9,Cc1ccc(CNC(=O)C(=O)NCC2OCCN2S(=O)(=O)c2ccc(Br)cc2)cc1 (centres unmarked),4.4
10,COc1cccc(NC(=O)Cn2c(=O)c3c(ncn3Cc3ccccc3)n(Cc3ccccc3)c2=O)c1,-0.187
11,Cc1ccc(N2CC(C(=O)NC3=NCCS3)CC2=O)cc1C (centres unmarked),0.808
12,Cc1ccc(-c2nnc(OCc3nc4ccccc4n3C)c3ccccc23)cc1,-12
13,O=C(N/N=C/c1cn(-c2cccs2)nc1-c1ccccc1)c1ccccc1Br,7.79
14,C#CC1(NC(=O)NC(=O)c2c(F)cccc2F)CCCCC1,8.83
15,O=C(Nc1ccncc1)c1cccc(S(=O)(=O)N2CCOCC2)c1,-58.4
16,Cc1cc(NC(=O)c2sccc2C)n(-c2nc3ccccc3[nH]2)n1,19.7
17,COC(=O)c1ccc(C2c3[nH]c4ccccc4c3C[C@H]3C(=O)N(C4CCN(Cc5ccccc5)CC4)CC(=O)N23)cc1 (some centres unmarked),-10
18,CCCOc1cccc(-c2nnc(N)s2)c1,0.334
19,CC(Oc1ccc2c3c(c(=O)oc2c1)CCC3)C(=O)NCc1ccccn1 (centres unmarked),6.35
20,Cc1cc(NC(=O)c2ccc(S(=O)(=O)N(C)C)cc2)no1,15.5
21,CCCc1cc(N2CCCC(C(=O)NCC)C2)n2ncnc2n1 (centres unmarked),-27.3
22,COc1ccc(NC(=O)c2c(-c3ccccc3)noc2C)c(OC)c1,-7.61
23,COC(=O)/C=C1\S/C(=N\N=C\CC(=O)OC)NC1=O,10.2

row,SMILES,"hERG current change (%, negative = inhibition) at 10uM [%]"
1,CCOc1ccc(NC(=O)c2cc3cc4ccc(OC)cc4nc3o2)cc1,17.6
2,CCOc1ccccc1NC(=S)NCCc1ccccc1,4.14
3,COc1cccc(NC(=O)NCc2ccccc2F)c1,0.0831
4,CCOC(=O)c1nnc(-c2ccc(C)cc2)nc1Sc1ccc(Cl)cc1,4.36
5,Cc1ccc2c(c1)C1CCCC3C1N2CC(=O)N3Cc1ccccc1 (centres unmarked),11.1
6,O=C(NC1CC2CCCC(C1)N2C(=O)N1CCCCC1)C1CCCCC1 (centres unmarked),-12.1
7,O=[N+]([O-])c1ccc(N2CCN(c3ccc(O)cc3)CC2)c(Cl)c1,-3.4
8,O=C(CSc1nnc(C2CC2)n1-c1ccccc1)N1CCNC1=O,8.84
9,O=S(=O)(c1ccc(Cl)s1)N1CCN(C/C=C/c2ccccc2)CC1,-18.5
10,O=C(Nc1ccc(F)cc1)N1CCN(c2ccc3nnc(-c4ccc(F)cc4)n3n2)CC1,-73.5
11,CCCCn1c(N)c(N(CC(C)C)C(=O)C2CCCN(C(=O)c3ccc(Cl)cc3)C2)c(=O)[nH]c1=O (centres unmarked),17.6
12,COc1ccc(-n2nnnc2-c2ccccc2)cc1,-0.233
13,COc1cc(/C=C2\C(=O)NC(=O)N(CCc3ccc(F)cc3)C2=O)ccc1O,17.7
14,CCOc1cc(C(=O)Nc2ccc3c4c(cccc24)C(=O)N3CC)cc(OCC)c1OCC,-5.15
15,Cc1ccc(CNS(=O)(=O)c2ccc(CN3C(=O)c4cccnc4C3=O)cc2)o1,4.85
16,COC(=O)c1ccc(NC(=O)CN2CCN(S(=O)(=O)c3cc(Cl)ccc3OC)CC2)cc1,-19.3
17,COc1ccc(CN(C)C(=O)c2ccccc2Sc2ccccc2C#N)c(OC)c1,0.887
18,COc1ccc(C(=O)Nc2cc3c4c(c2)CC(=O)N4CCC3)cc1,-12.8
19,CCOC(=O)CCCNC(=O)COC(=O)c1ccc(O)cc1,5.64
20,COc1ccc(NC(=O)CN2C(=O)COc3ccc(C)cc32)cc1,13.5
21,O=C(Nc1cccc(Br)c1)c1ccn[nH]1,-1.32
22,CC(C)(C)CC(=O)Nc1nnc(SCC(=O)NCc2cccs2)s1,35.2
23,CC(C)c1ccc(CN2CCSCC2)cc1,1.69

row,SMILES,"hERG current change (%, negative = inhibition) at 10uM [%]"
1,COc1ccc(N2C(=O)CC(Sc3nnc(-c4ccccc4)o3)C2=O)cc1 (centres unmarked),-22
2,CCCC(=O)Nc1ccc(S(=O)(=O)N2CCCC2)cc1,-2.63
3,Cc1c(C(=O)O)oc2ccc(S(=O)(=O)NC3CCCCCCC3)cc12,15.3
4,C/C(Cl)=C\C[N+](C)(C)CC(=O)OCCc1ccccc1.[Br-],-1.63
5,OCCNc1nc(N2CCOCC2)nc(N2CCOCC2)n1,2.77
6,Cc1cccc(NC(=O)NCc2ccc3c(c2)cc(C)n3C)c1,1.95
7,O=C(Nc1ncnc2sc3c(c12)CCCCC3)c1ccccc1,-4.62
8,COCCCNCC(=O)Nc1ccc(OC(F)(F)F)cc1.Cl,-30
9,CCOC(=O)C1CCCN(C(=O)c2cc3c(=O)n(C)c4ccccc4c3n2C)C1 (centres unmarked),-7.02
10,OC(CC#CCN1CCCCC1)(c1ccccc1)c1ccccc1,-16
11,O=C(CCCCCNC(=O)N1CCn2c1nc1ccccc12)NCc1ccc(Cl)cc1,2.07
12,CCc1sc(C(=O)NCc2cc(C)n(C)n2)cc1Br,-14.1
13,COc1ccc(-n2c(=S)[nH]c3cc(C(=O)Nc4ccc(OC)c(OC)c4)ccc3c2=O)cc1,5.74
14,O=C(CO)N/N=C/c1c2ccccc2cc2ccccc12,-5.89
15,COCCCNC(=S)Nc1cc(C)c(C)cc1C,12.1
16,CCOc1cc(-c2sc(Nc3ccccc3)n[n+]2C)ccc1OC.[Cl-],-1.24
17,CCOC(=O)c1sc2nc(NC(=O)C(C)(C)C)sc2c1C,-11.7
18,O=c1cc(-c2ccc(C3CCCCC3)cc2)[nH][nH]1,11.2
19,Cc1ccsc1C(=O)Nc1ccc(O)c(-c2nc3ccccc3s2)c1,14.8
20,COc1ccc(CN2CCC(C(=O)c3ccc(F)cc3)CC2)cc1,-78.4
21,Cc1ccccc1-n1c(Cn2c(=O)sc3ccccc32)nnc1SCC(N)=O,9.72
22,Cc1ccc(C(=O)CCC(=O)Nc2ccccc2C)c(C)c1,18.6
23,Cc1ccccc1N1C(=O)C(Oc2ccc(Cl)cc2)C1CNC(C)(C)C (centres unmarked),-39.5

row,SMILES,"hERG current change (%, negative = inhibition) at 10uM [%]"
1,COc1cccc(OCCSc2nc3ccccc3c(=O)[nH]2)c1,12.7
2,COc1ccc(N2CCN(C(=S)Nc3ccc(OC)cc3OC)CC2)cc1,14.2
3,COC(=O)CN(c1ccc(OC)cc1)S(=O)(=O)c1ccc(OC)c(OC)c1,-19.1
4,Cc1ccc(Cl)cc1NC(=S)N(CCN(C)C)Cc1cccs1,-0.292
5,CC(=O)c1cccc(OC(=O)c2ccc3c(=O)n4c(nc3c2)CCC4)c1,-19.7
6,Cn1nccc1C(=O)OCC(=O)Nc1nc(-c2ccccc2)cs1,-3.52
7,CC(=O)c1ccc(NC(=O)c2cc3ccccc3o2)cc1,9.19
8,Cc1ccc(S(=O)(=O)C2(C(=O)N3CCN(C4CCCCC4)CC3)CC2)cc1,-27.8
9,CC1CCN(CC(O)COc2ccc(-c3ccccc3)cc2)CC1.Cl (centres unmarked),-81
10,Cc1ccc(C(C)NC(=S)NC2CCCCC2)c(C)c1 (centres unmarked),4.2
11,COc1cccc(CN(C(=O)c2cccs2)C2CCS(=O)(=O)C2)c1 (centres unmarked),-15.7
12,CC(=O)O.CC(=O)Oc1ccc(-c2csc(Nc3ccc(S(N)(=O)=O)cc3)n2)cc1,9.81
13,O=C(Nc1cccc(CCc2ccccn2)c1)c1ccc(Cl)cc1,-25
14,Cc1ccc(NC(=O)Cn2cc([N+](=O)[O-])nc2C)cc1C,9.93
15,COc1ccc(/C=N/NC(=O)c2nnn(-c3nonc3N)c2CN(C)C2CCCCC2)cc1,10.1
16,C=CCn1c(-c2ccccc2)nc(=S)c2c1CC(C)(C)OC2,22.6
17,CCC(=O)Nc1nc(NCc2ccccc2OC)n(-c2ccccc2)n1,-23.9
18,COc1ccc(N(C(=O)c2snc(C(N)=O)c2N)C(C(=O)NC2CCCC2)c2cc(OC)ccc2OC)c(OC)c1 (centres unmarked),20.9
19,Cc1n[nH]c(=O)c2c(NC(=O)COC(=O)c3cc(F)cc(F)c3)oc(C)c12,-0.246
20,COc1cc(CCCN2C(=S)NC[C@@H]2c2ccccc2)cc(OC)c1OC,-3.51
